Assay results reported in PMC12136788.
Some of the results follow.

T1: UNK ZnF1-3 (human, UniProt Q9C0B0 31-174)
T1 sequence: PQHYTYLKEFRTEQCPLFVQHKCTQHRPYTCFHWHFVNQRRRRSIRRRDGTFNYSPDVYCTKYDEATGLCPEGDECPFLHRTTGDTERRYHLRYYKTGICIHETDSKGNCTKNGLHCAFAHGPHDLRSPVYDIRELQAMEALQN

B1: chr1:163112212:163112213:-_ENSG00000143248_ENST00000313961|hu_hu|hu_hu_hu_mus_False|8_98 (ssRNA)
RNA: GGGAGUUCUACAGUCCGACGAUCUUUUAUUAUCAGUAAGCAUGAGUUACAUACUAGGCAAAGUAUUGGAUACAAUAAUCAGGAAACAAACACUAUUGGUCCAGAAUUUAAAACUUUAUGAGCGAAGGCUUACAAAUGGACUUACAACAGAGGAUUGAGCAUCA
B2: chr4:57314706:57314707:+_ENSG00000128050_ENST00000264221|hu_mus|hu_hu_hu_mus_True|78_78 (ssRNA)
RNA: GGGAGUUCUACAGUCCGACGAUCCAGAAUUUCAAAAAUAGCUUGUGUGGCAUGACUCAUGAUAUCCACUUCAGUCUGCCCUAUAACAAGGCCAGCAAAACAGAAUUUUGCAGCAAUGAGUUGCUCCUCAGACCACUGUGGAUCCAACAGAGGAUUGAGCAUCA
B3: chr16:23109248:23109249:+_ENSMUSG00000022884_ENSMUST00000115341|mus_hu|FALSE|FALSE (ssRNA)
RNA: GGGAGUUCUACAGUCCGACGAUCAAGUGCCAGAAUUACCUUUUGGAUCUGUUGAGCCAGUUCUCUGGUGGGGGCCAAUACUAGUGCUUGGGUCUCCUUGAACUCAAUCUCCAACUGUUGCAGGAUGGAAAUAGCAAAUGUGGCCAACAGAGGAUUGAGCAUCA
B4: chr4:17845017:17845018:+_ENSG00000109805_ENST00000514176|hu_mus|hu_hu_hu_mus_False|78_108 (ssRNA)
RNA: GGGAGUUCUACAGUCCGACGAUCGCUUCCUAACUUAGUAUCUUCAUUAAGGAACUCGCAAGGUUAAAGUUUACUUUUCUGUAGCGCAGCUGUUUUGGCUCGUCUGGGUAAUCUCAUCUUCAUUUCUGAUGGUGGUUCAUGAUCCAACAGAGGAUUGAGCAUCA
B5: chr7:40134317:40134318:+_ENSG00000065883_ENST00000340829|hu_hu|motif|central (ssRNA)
RNA: GGGAGUUCUACAGUCCGACGAUCGGAAGGGUCACUGCUGUUUGCCAGGACUGCAAUAGGACCAUGGCUAUAUUCAAAUCGGUGGUCCUUGUCUCCACUAAACAACAUGGGACCAGCAUUGAGGUAAAUGUCUCCAUAUCCAGCCAACAGAGGAUUGAGCAUCA
B6: chr5:128440902:128440903:+_ENSG00000066583_ENST00000173527|hu_mus|hu_hu_hu_mus_True|18_48 (ssRNA)
RNA: GGGAGUUCUACAGUCCGACGAUCUUGAACGGUGCUGCCAAGUCCUUUGGGGUAUUGUUCCGUUAUGAUAACUGGAAUCCCUAAGAUCCGGGCCCCUUGCAACAGUCUCUGUCCCACGCUAAUAAUAUCCCCAAAGUAUUUGAUCAACAGAGGAUUGAGCAUCA
B7: chr16:94664741:94664742:+_ENSMUSG00000040785_ENSMUST00000117648|mus_hu|mus_mus_mus_hu_False|28_58 (ssRNA)
RNA: GGGAGUUCUACAGUCCGACGAUCUGGUACUGAUCUUGGUAGCUGAUAUUCAGGAGAAAGGCUGGCCAAGGGUGUAUAAAUGCUAGUGUACUGGGGCAAACCUGGUACCAUGUUAAUGUAUGCUGGCGGUGUCUGGGUGAUAUCCAACAGAGGAUUGAGCAUCA
B8: chrX:71549762:71549763:+_ENSMUSG00000019087_ENSMUST00000019231|mus_mus|mus_mus_mus_hu_False|28_28 (ssRNA)
RNA: GGGAGUUCUACAGUCCGACGAUCAAACCCGUGUACUUCUUAUUGUUAGCACAACAUCACCAGAAAACGAUAACGACAGCCAAGCAGGACAGACAGUUAAGUAGUACUUCCACACCUCCAAACUCAGGGAGCCCUAUAACCUUACAACAGAGGAUUGAGCAUCA
B9: 30804562_30806349_983_CDS_ENSG00000108671_ENST00000457654|human|control|control (ssRNA)
RNA: GGGAGUUCUACAGUCCGACGAUCUAGUAAGUUAUCAUACAACUUGGCCAAGUGUGUGCUGAUGAUUGGGUCAUCCCGGAGCUCUGCCCGGUAAUCUGUCAGAGCCUUUUCAAAAUCUGCCAGUGAUCUGUUCUUGCUAGCCUGCAACAGAGGAUUGAGCAUCA
B10: 35104582_35104702_250_CDS_ENSMUSG00000029104_ENSMUST00000080036|mouse|control|control (ssRNA)
RNA: GGGAGUUCUACAGUCCGACGAUCCUGCCCCUGAGGCGGCGGCUGAGGGGGUUGAGGCGGAGGCGGCGGCGGCGGUGGCGGCGGCGCCUGCGGCGGUGGCUGCUGCUGCUGUUGCUGCUGAAACGACUUGAGCGACUCGAAAGCCAACAGAGGAUUGAGCAUCA
B11: chr14:89307221:89307222:+_ENSG00000165533_ENST00000346301|hu_mus|hu_hu_hu_mus_False|68_78 (ssRNA)
RNA: GGGAGUUCUACAGUCCGACGAUCUCCUGUUUGGUUAGUGCCAGGGAGCUUCAAAGACGUUCCAGGGCGUGGAACUUGAGCAAUAGCAUUUUCAUCCAGGAUCAUUUCAGCAAUUCCUUCCUGGUCCACAUCAAUUUCAUCUAUCAACAGAGGAUUGAGCAUCA
B12: chr17:24776569:24776570:-_ENSMUSG00000002504_ENSMUST00000002572|mus_mus|motif|central (ssRNA)
RNA: GGGAGUUCUACAGUCCGACGAUCAGAGAGCCUAGGCUCUGCAUUCCAGAACCCAGCAUGUGGGAGGUAGCACAGGGGUAGCGGGGCAGAGAAGAGAGGCCUGGCCUAGGGACCAUCCCAUGUGAGGGAUGGGGCAGAGGGACACAACAGAGGAUUGAGCAUCA
B13: chr2:48034705:48034706:-_ENSG00000138081_ENST00000403359|hu_mus|FALSE|FALSE (ssRNA)
RNA: GGGAGUUCUACAGUCCGACGAUCCAUAGAAAGAAGGUACAUACUGGGACAUGAGUACAGUUACAGCAAGUCUAGGUGUGCUAACAAAACAGGGCACAUUCAAGUACAAUAAGAUUUGCUUGAAAUUAAAAACGAACUACAUGACAACAGAGGAUUGAGCAUCA
B14: 65860078_65860198_1207_3pUTR_ENSMUSG00000044647_ENSMUST00000122912|mouse|control|control (ssRNA)
RNA: GGGAGUUCUACAGUCCGACGAUCGUGGCAGCCAUUCAGCGUGGGGGUUUGUUGCUCUCGGUUCUUCUCCAGUUCAAGUUUCAUUAUUGUGUGCAAAAAAUGAGUCCGGACACGGAUAGGAUUGAAUUCAAUUCUACCUGCUGUCAACAGAGGAUUGAGCAUCA
B15: chr5:24319680:24319681:-_ENSMUSG00000028945_ENSMUST00000030787|perfect_dup|motif|central (ssRNA)
RNA: GGGAGUUCUACAGUCCGACGAUCAAGCUGAAGAUGAUACUCUUGACCAUUUACCGUGAUCAACUUGGUGAACGUGUUCUCGGUGGUUGGAUCGUAGGAAUCAACAAAUUGGCCUUCAACAAACUGAAUUGUCAAUGAGGACUUCAACAGAGGAUUGAGCAUCA
B16: chr6:13037117:13037118:+_ENSMUSG00000029571_ENSMUST00000031556|mus_mus|FALSE|FALSE (ssRNA)
RNA: GGGAGUUCUACAGUCCGACGAUCGCGUGUACUGUACUGUUUGUGAAUGGGCAUCGACACAUUUGUAUGUGUGUGUACACUAUAUAUGUGGUAUUGUACUGUCCGUGAACGGUCAUCCGAGAAGAGUGCCAGUUCUCUCCGCCUCAACAGAGGAUUGAGCAUCA
B17: 49638243_49703634_88_5pUTR_ENSMUSG00000040260_ENSMUST00000057610|mouse|control|control (ssRNA)
RNA: GGGAGUUCUACAGUCCGACGAUCUCAUUGGCACAAUCCUGAGGCCCGCAUGGCACGGUGAGGCUGCUGCUGUCCCGGCUUCCCGCAGGCACCGCGCUCCGCUUGCUCAGCUCAGUCCUUGGCUGCUCAGGACUCCGGAGAAAGCAACAGAGGAUUGAGCAUCA
B18: chr3:122261000:122261001:-_ENSMUSG00000039735_ENSMUST00000162409|mus_hu|FALSE|FALSE (ssRNA)
RNA: GGGAGUUCUACAGUCCGACGAUCGUAAUCUUCAAAUGGAAAGUCUCCUGGAGGUUCAAAACCAGAUUUGAAGGAGUCUACCACCAUUUGAGAGUCUCUUCUUUCAUCAACUGAUUUUGCUGCAAGAAUCAUUCCUUCCAAACACAACAGAGGAUUGAGCAUCA
B19: chr5:72798899:72798900:+_ENSG00000145741_ENST00000335895|hu_hu|FALSE|FALSE (ssRNA)
RNA: GGGAGUUCUACAGUCCGACGAUCUGGUGCUUUUCCAUCCACAGAUUGUUUGGGCAGAGCUUCGGCCAGUCUCCUUAAACUAGUCAGACUAUCCGCACCAAGCUGGUUUAAGAUGCUGGGUAGCAUUUCUGUCAGCUGCUUUGUCAACAGAGGAUUGAGCAUCA
B20: chr13:55348081:55348082:+_ENSMUSG00000021488_ENSMUST00000099490|mus_mus|FALSE|FALSE (ssRNA)
RNA: GGGAGUUCUACAGUCCGACGAUCCUCUCCUUUCCCACUUUUGGAUAUAUUGGCCAAAGGAGAGCCAUUGGUAUCAGAAGAACAGCAUUUCAAACUGAGGUCCUCACUUGUAGCUGAGGUUUCUGCAACAGCUGGGCUUUCUUUCAACAGAGGAUUGAGCAUCA
B21: 77285899_77286019_1232_3pUTR_ENSMUSG00000036377_ENSMUST00000163347|mouse|control|control (ssRNA)
RNA: GGGAGUUCUACAGUCCGACGAUCCGCGUUGUCUUGCUUCCUCCUCCUGCCUCUCGGCCUCGCGCUGCCUCAGUUUCUCCGCCUGCCUCUCGGCCUCGCAUUGUCUCGCUUCCUCCUCUUGCCUCUCGGCCUCGCGCUGCUUCUCAACAGAGGAUUGAGCAUCA
B22: chr2:130329849:130329850:+_ENSMUSG00000027303_ENSMUST00000028769|mus_mus|FALSE|FALSE (ssRNA)
RNA: GGGAGUUCUACAGUCCGACGAUCGUGUGAAGAAUUAACAGUAGUCACAUAGGUGGGCUCCAGAGUCAGGUUUGGGCUGAAUGUUGGUGCCACAGAAAGAGAAAUUACUGAAGAGGUUGAAUUUGAGGUUUUAUUCUCUUCCUUCAACAGAGGAUUGAGCAUCA

Each binder was assayed against T1, UNK ZnF1-3 (assay: nsRBNS (natural sequence RNA bind-n-seq); RBNS binding buffer (assumed for nsRBNS): 25 mM Tris pH 7.5, 150 mM KCl, 3 mM MgCl2, 0.01% Triton X-100, 500 ug/ml BSA, 20 U/ml SUPERase-In, 4 C; UNK is unkempt and MSI1 is Musashi-1; names of the RNAs are library labels; protein concentration not given here; high values mean tight binding).

Binder	binding signal [enrichment R]
B1	0.988
B2	1.03
B3	1.13
B4	0.585
B5	1.39
B6	0.768
B7	1.02
B8	1.58
B9	0.718
B10	1.01
B11	0.862
B12	1.07
B13	1.25
B14	0.818
B15	0.867
B16	0.651
B17	0.798
B18	0.857
B19	0.537
B20	1.01
B21	0.495
B22	1.22
